From PubChem BioAssay AID588855 (National Center for Advancing Translational Sciences (NCATS), 2011)
Hit rate of the full screen: of about 410,000 compounds, about 5,000 (1.2%) were called active. Inconclusive means that the source gave no clear call. Such entries were picked first, then a sample of the others. Calls come from the whole dose curve; as a rule, active = well fitted inhibition curve with a large enough effect; inconclusive = small, poorly fitted or top-dose-only effect; inactive = no such curve, though single readings can be large or run the other way. Potencies of inconclusive entries are doubtful fits and often do not repeat.

Experiment: qHTS for Inhibitors of TGF-b; note: nearly all actives have a fitted effect of over 65% in size
Details: HepG2 CAGA-GFP TGF-b/SMAD3 reporter, GFP fluorescence, 18 h, TGF-beta stimulated, 500 pg/mL final; series mostly up to 46.1 µM; activity, negative = inhibition: at the top concentration
In short: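 HEPG2 CAGA-GFP reporter cells (1000/well, DMEM with 1% FBS) received compounds, then recombinant TGF-beta at 500 pg/mL final for 18 hours at 37 degrees C. Per-cell GFP summed per well was normalised to unstimulated and stimulated DMSO controls before curve fitting.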
% is set by controls: 0 for no effect and ±100 for the full control effect; potency is the fitted concentration of half-maximal effect; tags give direction and shape of the fitted curve.

Question: Which Potency does the source give for `Cn1c(NCc2ccc3occc3c2)nc2cc(-c3ccc(F)cc3)sc2c1=O` here?
Answer: inconclusive: 10 µM [inhibitor, partial curve, poor fit]

Question: Which “activity, negative = inhibition” value does the source give for `COc1ccc2cc(-c3nnc(Nc4ccccc4)s3)c(=O)oc2c1` here?
Answer: inactive: 8.24%

Question: Which Potency does the source give for `CC(C)C(=O)N1CCN(c2ccc(NC(=O)c3ccc([N+](=O)[O-])o3)cc2)CC1` here?
Answer: inconclusive: 5.62 µM [inhibitor, full curve]

Question: With `CCCCCCCCO` as the compound, how does the “activity, negative = inhibition” value read?
Answer: inactive: 13.2%

Question: With `Cc1c(C(=O)NCc2cccc(C(F)(F)F)c2)sc(=O)n1Cc1ccc(S(=O)(=O)N(C)C)cc1` as the compound, how does the “activity, negative = inhibition” value read?
Answer: inactive: -22.5%

Question: For `Cc1cnc(=O)[nH]c1SCc1cccc(C(F)(F)F)c1`, which “activity, negative = inhibition” value is on record?
Answer: inactive: 1.56%

Question: With `CCCOc1ccc(CNC(=O)c2ccc(C)c(-n3c(C)nc4cccnc43)c2)cc1` as the compound, how does the Potency read?
Answer: inconclusive: 35.5 µM [inhibitor, single point]

Question: Which Potency does the source give for `COc1cccc(NS(=O)(=O)c2c(C)cc(C)cc2C)c1` here?
Answer: inconclusive: 25.1 µM [inhibitor, single point]

Question: With `C(=C\c1ccccc1)/CSc1nnc(-c2ccncc2)n1Cc1ccco1` as the compound, how does the “activity, negative = inhibition” value read?
Answer: inactive: -24.6%

Question: For `COc1ccc(NC(=O)c2c(C)oc3ccc(O)c(CN4CCN(Cc5ccccc5)CC4)c23)cc1Cl`, which “activity, negative = inhibition” value is on record?
Answer: inactive: 0%

Question: Which Potency does the source give for `O=C(CSc1nncc(=O)[nH]1)NCc1ccccc1` here?
Answer: inconclusive: 6.31 µM [inhibitor, single point]

Question: Which Potency does the source give for `CC[C@@H](C)[C@H](CNC)NC[C@@H](Cc1cccc2ccccc12)NCCc1cccc(C(F)(F)F)c1` here?
Answer: inconclusive: 35.5 µM [inhibitor, single point]

Question: With `CC1(C(=O)NCC2CCCCC2)CCN1CCc1ccccc1` (stereo unspecified) as the compound, how does the Potency read?
Answer: inconclusive: 10 µM [inhibitor, partial curve]

Question: Which Potency does the source give for `Cc1noc(C)c1CSCC(=O)Oc1ccc(N(C)S(=O)(=O)c2ccccc2)cc1` here?
Answer: inconclusive: 0.398 µM [inhibitor, partial curve, poor fit]

Question: With `CCOC(=O)N(C)c1c(CC)nc2c(OCC(=O)C(C)(C)C)cccn12` as the compound, how does the “activity, negative = inhibition” value read?
Answer: inactive: 34.6%

Question: For `CCn1c(SCc2cccc(C(F)(F)F)c2)nnc1-c1ccco1`, which “activity, negative = inhibition” value is on record?
Answer: inactive: -11.1%

Question: For `CC(Nc1cc(N2CCN(C(=O)C(C)(C)C)CC2)ccc1[N+](=O)[O-])c1ccccc1` (stereo unspecified), which Potency is on record?
Answer: inconclusive: 35.5 µM [inhibitor, single point]

Question: Which “activity, negative = inhibition” value does the source give for `CCc1ccc(NC(=O)CN2CCc3ccccc3C2)cc1` here?
Answer: inactive: 7.92%

Question: With `Cc1cccc(CNC(=O)c2sc(=O)n(Cc3c(C)cccc3C)c2C)c1` as the compound, how does the Potency read?
Answer: inconclusive: 20 µM [inhibitor, partial curve]

Question: With `CCC(C)N(c1ccc(/C=C/c2ccnc3ccccc23)cc1)C(C)CC` (stereo unspecified) as the compound, how does the Potency read?
Answer: inconclusive: 3.98 µM [inhibitor, single point]

Question: Which Potency does the source give for `COc1ccc(-c2c[n+]3c4n2CCCCC4=C(c2ccccc2)C3)cc1` here?
Answer: inconclusive: 35.5 µM [inhibitor, single point]

Question: With `Cc1nc2c(OCc3ccc(Cl)cc3)cccn2c1N(C)Cc1cccs1` as the compound, how does the Potency read?
Answer: inconclusive: 15.8 µM [inhibitor, single point]

Question: For `CCOCCCNC(=O)CCCn1nc(C)n2c(cc3sccc32)c1=O`, which “activity, negative = inhibition” value is on record?
Answer: inactive: 2.88%

Question: With `COc1ccc(/C=C2/C(=O)N(c3c(F)c(F)c(F)c(F)c3F)N=C2C)cc1` as the compound, how does the Potency read?
Answer: inconclusive: 35.5 µM [inhibitor, single point]

Question: For `COc1ccc(C2(O)CC3CCC(C2)N3c2nc(C)cc(C)c2C#N)cc1` (stereo unspecified), which Potency is on record?
Answer: inconclusive: 35.5 µM [inhibitor, single point]

Question: With `CC1=NN(c2ccccc2C(=O)O)C(=O)C1N=Nc1ccccc1` (stereo unspecified) as the compound, how does the “activity, negative = inhibition” value read?
Answer: inactive: -3.78%

Question: Which “activity, negative = inhibition” value does the source give for `Cc1noc(C)c1CCC(=O)Nc1c(C(C)C)cccc1C(C)C` here?
Answer: inactive: -21.3%

Question: With `COc1ccc(-c2cc3nc(C)c(CCC(=O)N4CCN(c5ccc(F)cc5)CC4)c(C)n3n2)c(OC)c1` as the compound, how does the “activity, negative = inhibition” value read?
Answer: inactive: 5.01%

Question: With `CC1=C/C(=N\OS(=O)(=O)c2ccccc2)C(C(C)C)=CC1=O` as the compound, how does the Potency read?
Answer: inconclusive: 10 µM [inhibitor, single point]

Question: For `CCOc1cc(/C=N/O)cc(Br)c1OCc1ccc(Cl)cc1`, which Potency is on record?
Answer: inconclusive: 35.5 µM [inhibitor, single point]

Question: For `COc1ccccc1-c1cnc(C(O)c2ccc(Cl)c(F)c2)[nH]1` (stereo unspecified), which Potency is on record?
Answer: inconclusive: 35.5 µM [inhibitor, partial curve, poor fit]

Question: With `CCOC(=O)N1CCN(C(=O)CSCC(=O)N=c2sc3ccccc3n2C)CC1` as the compound, how does the “activity, negative = inhibition” value read?
Answer: inactive: -4.73%

Question: With `O=C(Cn1c(=O)nc(-c2ccccc2)c2cc(Cl)ccc21)N1CCN(c2ccccc2F)CC1` as the compound, how does the Potency read?
Answer: inconclusive: 0.447 µM [inhibitor, partial curve, poor fit]

Question: For `N/C(=N\OC(=O)c1ccc2c(c1)OCO2)c1cccc([N+](=O)[O-])c1`, which “activity, negative = inhibition” value is on record?
Answer: inactive: -3.66%

Question: With `O=C(N/N=C/c1sc(N2CCOCC2)nc1-c1ccccc1)c1cccc(S(=O)(=O)N2CCCC2)c1` as the compound, how does the Potency read?
Answer: inconclusive: 14.1 µM [inhibitor, partial curve, poor fit]

Question: For `CC(=O)N1CCN(C(=O)c2[nH]c(C(F)(F)F)nc2-c2ccccc2)CC1`, which Potency is on record?
Answer: inconclusive: 28.2 µM [inhibitor, single point]

Question: With `COC(=O)CNC(=O)c1cccc(F)c1` as the compound, how does the Potency read?
Answer: inconclusive: 35.5 µM [inhibitor, single point]

Question: With `COc1cc2c(cc1O)[C@@H]1Cc3cc(OC)c(OC)cc3C(C2)N1C` as the compound, how does the Potency read?
Answer: inconclusive: 5.62 µM [inhibitor, single point]

Question: With `COc1ccc2c(c1)CC(C(=O)NCCCN1CCN(c3cccc(Cl)c3)CC1)CO2` (stereo unspecified) as the compound, how does the Potency read?
Answer: inconclusive: 35.5 µM [inhibitor, single point]

Question: With `O=C(Cn1c(=O)oc2ccccc21)NCCc1ccccc1` as the compound, how does the “activity, negative = inhibition” value read?
Answer: inactive: 12.4%

Question: Which “activity, negative = inhibition” value does the source give for `Cc1ccc(S(=O)(=O)Nc2cc3c(cc2NCc2ccccc2)n(C)c(=O)n3C)cc1` here?
Answer: inactive: -9.94%

Question: Which “activity, negative = inhibition” value does the source give for `O=C(CCNC(=O)C1CCN(S(=O)(=O)c2ccc(F)cc2)CC1)Nc1nccs1` here?
Answer: inactive: 1.16%

Question: With `O=C(CSc1ncc(-c2ccccc2)[nH]1)Nc1ccc(Cl)cc1` as the compound, how does the Potency read?
Answer: inconclusive: 15.8 µM [inhibitor, single point]

Question: With `CC(=O)NCCn1c(SCc2ccccc2C)nc2ccccc2c1=O` as the compound, how does the Potency read?
Answer: inconclusive: 2.82 µM [inhibitor, full curve, poor fit]

Question: With `Cn1c(=O)c2c(ncn2CC(O)CNc2cccc(Cl)c2)n(C)c1=O` (stereo unspecified) as the compound, how does the “activity, negative = inhibition” value read?
Answer: inactive: -0.216%

Question: For `CSc1ncc(C(=O)N2CCN(c3cccc(Cl)c3)CC2)c(C)n1`, which Potency is on record?
Answer: inconclusive: 35.5 µM [inhibitor, single point]

Question: Which Potency does the source give for `Cc1cc(C)nc(NC(=O)c2c(F)c(F)c(F)c(C(=O)Nc3cc(C)cc(C)n3)c2F)c1` here?
Answer: inconclusive: 35.5 µM [inhibitor, single point]

Question: With `COc1ccc(-c2cc(C)no2)cc1S(=O)(=O)N(C)c1cccc(C)c1` as the compound, how does the “activity, negative = inhibition” value read?
Answer: inactive: -0.487%

Question: With `Cc1ccc(/C=C\c2nccc3c2[nH]c2ccccc23)cc1` as the compound, how does the Potency read?
Answer: inconclusive: 35.5 µM [inhibitor, single point]

Question: With `CCOc1cc(N2CCOCC2)c(OCC)cc1NC(=O)c1cnccn1` as the compound, how does the “activity, negative = inhibition” value read?
Answer: inactive: 24.6%

Question: With `O=[N+]([O-])c1cccc(OCCCN2CCC(Cc3ccccc3)CC2)c1` as the compound, how does the Potency read?
Answer: inconclusive: 35.5 µM [inhibitor, single point]

Question: Which “activity, negative = inhibition” value does the source give for `CCOc1ccc(CCNC(=O)Cn2nnc(-c3ccccc3Cl)n2)cc1OCC` here?
Answer: inactive: 15.4%

Question: Which Potency does the source give for `Cc1cn(C)c(CC(=O)NCc2ccccc2)c1C(=O)O` here?
Answer: inconclusive: 8.91 µM [inhibitor, partial curve, poor fit]

Question: With `Cn1c(=O)c2c(nc(NCCOc3ccc(C(C)(C)C)cc3)n2C)n(C)c1=O` as the compound, how does the Potency read?
Answer: inconclusive: 6.31 µM [inhibitor, single point]

Question: Which Potency does the source give for `CCOC(=O)c1cc(NC(=O)CC(C)(C)CC(=O)O)ccc1N1CCCCC1` here?
Answer: inconclusive: 14.1 µM [inhibitor, single point]

Question: With `COc1ccc(S(=O)(=O)N(Cc2cccs2)C2CCCC2)cc1` as the compound, how does the “activity, negative = inhibition” value read?
Answer: inactive: 3.91%

Question: With `O=C(O)c1ccccc1C(=O)NCCCn1ccnc1` as the compound, how does the “activity, negative = inhibition” value read?
Answer: inactive: 7.23%

Question: For `CN(C)CCCCCCNc1nccc(N2CCN(C)CC2)n1`, which “activity, negative = inhibition” value is on record?
Answer: inactive: 3.21%

Question: For `Cc1cc(N2CCN(C)CC2)nc2ccc(NC(=O)Nc3cccc(Cl)c3)cc12`, which Potency is on record?
Answer: inconclusive: 35.5 µM [inhibitor, single point]

Question: For `O=C(N=C1SC2CS(=O)(=O)CC2N1c1ccc(Cl)c(Cl)c1)C1CCCO1` (stereo unspecified), which “activity, negative = inhibition” value is on record?
Answer: inactive: 12.7%

Question: For `CC(C)C1C(=O)Nc2ccc(S(=O)(=O)NCCc3ccc(Cl)cc3)cc21` (stereo unspecified), which Potency is on record?
Answer: inconclusive: 31.6 µM [inhibitor, single point]

Question: Which Potency does the source give for `CSc1sc(C(=O)N2CCCCC2)c(-c2cccs2)c1C#N` here?
Answer: inconclusive: 35.5 µM [inhibitor, single point]

Question: Which Potency does the source give for `COc1ccc(C(Cl)=C(C=O)c2ccc(OC)c(OC)c2)cc1OC` here?
Answer: inconclusive: 3.98 µM [inhibitor, partial curve, poor fit]

Question: Which Potency does the source give for `Cc1ccccc1Nc1nn2c(=O)c3ccc(C(=O)NCCc4ccc(Cl)cc4)cc3nc2s1` here?
Answer: inconclusive: 2.24 µM [inhibitor, full curve]

Question: For `Cc1cc(N2CCN(C(=O)c3ccco3)CC2)n2nc(C)c(-c3ccccc3)c2n1`, which “activity, negative = inhibition” value is on record?
Answer: inactive: -2.88%

Question: With `CC1CCc2c(sc(NC(=O)c3ccc(N4C(=O)CCC4=O)cc3)c2C(N)=O)C1` (stereo unspecified) as the compound, how does the “activity, negative = inhibition” value read?
Answer: inactive: -0.133%

Question: For `COc1ccc([N+](=O)[O-])cc1/C=N/NC(=O)c1nonc1N`, which Potency is on record?
Answer: inconclusive: 35.5 µM [inhibitor, single point]

Question: For `COc1ccc(-c2cc(-c3ccc(C)cc3)n[nH]2)c(O)c1`, which Potency is on record?
Answer: inconclusive: 35.5 µM [inhibitor, single point]

Question: Which Potency does the source give for `CCCn1c(CNc2ccc(Br)cc2)nc2ccccc21` here?
Answer: inconclusive: 15.8 µM [inhibitor, partial curve, poor fit]

Question: For `Cc1oc2ccc(O)c(CN3CCCC3)c2c1C(=O)Nc1ccc(C(C)C)cc1`, which Potency is on record?
Answer: inconclusive: 35.5 µM [inhibitor, single point]

Question: For `COc1ccc(-c2noc(CCC(=O)N3CCC(C)CC3)n2)cc1`, which Potency is on record?
Answer: inconclusive: 10 µM [inhibitor, partial curve]
